Assay results taken from the supplement of paper PMC3334620.
Whole data set: some 33,000 sequences, median “E-score (-0.5 to 0.5)” near -0.012, cut for the highest 2% near 0.29. The list shows a part of the results.

target: T1, Ybr033w (UniProt P38073); assay: PBM E-score (8-mer binding enrichment) (E-score (-0.5 to 0.5)); higher = stronger / more preferred TF binding; most listed sequences are background and not binding sites; settings: protein concentration: 200 nM; construct: GST-full length
T1 sequence: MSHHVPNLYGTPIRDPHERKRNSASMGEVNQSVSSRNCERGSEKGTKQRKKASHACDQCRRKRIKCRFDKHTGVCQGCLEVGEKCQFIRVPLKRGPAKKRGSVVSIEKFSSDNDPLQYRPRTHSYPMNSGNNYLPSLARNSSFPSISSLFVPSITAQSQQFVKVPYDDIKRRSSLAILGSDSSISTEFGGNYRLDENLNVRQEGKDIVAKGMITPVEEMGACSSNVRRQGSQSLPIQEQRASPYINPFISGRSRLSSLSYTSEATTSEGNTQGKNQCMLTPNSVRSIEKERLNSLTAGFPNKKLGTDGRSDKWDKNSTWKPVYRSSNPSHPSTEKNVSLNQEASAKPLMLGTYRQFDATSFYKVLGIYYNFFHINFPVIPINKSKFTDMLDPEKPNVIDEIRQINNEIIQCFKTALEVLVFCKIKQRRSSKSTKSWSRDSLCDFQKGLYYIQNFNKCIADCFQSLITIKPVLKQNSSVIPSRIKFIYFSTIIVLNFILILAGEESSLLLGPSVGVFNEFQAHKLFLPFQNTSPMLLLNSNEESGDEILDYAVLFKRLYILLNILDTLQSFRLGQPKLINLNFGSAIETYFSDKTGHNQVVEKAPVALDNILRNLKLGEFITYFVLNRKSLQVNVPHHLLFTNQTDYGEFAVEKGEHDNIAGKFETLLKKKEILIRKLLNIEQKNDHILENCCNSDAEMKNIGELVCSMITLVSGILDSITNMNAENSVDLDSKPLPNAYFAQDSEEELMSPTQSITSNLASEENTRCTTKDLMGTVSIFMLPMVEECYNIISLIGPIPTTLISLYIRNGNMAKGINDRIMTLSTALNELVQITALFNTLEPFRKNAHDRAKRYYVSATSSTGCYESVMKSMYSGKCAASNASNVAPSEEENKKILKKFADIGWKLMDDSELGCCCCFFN
Procedure, shortened: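 Each ungapped eight-base word and its reverse complement, pooled, received an E-score from the Universal PBM Analysis Suite. Underlying scans, normalised with masliner, recorded fluorescent anti-GST bound to GST-tagged yeast transcription factors. These were applied at about 100-200 nM to universal all-10-mer Agilent arrays double-stranded by primer extension.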

In order of rising “PBM E-score” value:
1. GAGGGGGA  -0.411
2. GGCTCCCC  -0.35
3. CGACCCCC  -0.333
4. GCCCTCCC  -0.333
5. CCCCAGGA  -0.311
6. AGGTGGGC  -0.311
7. GGAAACCA  -0.309
8. ACCGGTGG  -0.303
9. CTCCCAGA  -0.301
10. CGGGGAGC  -0.294
11. GGCTTCAC  -0.279
12. CAAGGCGG  -0.278
13. CCTGTCAC  -0.266
14. ACCCACCT  -0.245
15. GGACTCAC  -0.242
16. AGGCCTGA  -0.238
17. GCCATGGC  -0.238
18. AGCACCCA  -0.238
19. CGCACGAC  -0.227
20. GCCGATGA  -0.225
21. CCGTCGAC  -0.218
22. GAGACACC  -0.216
23. CCACAGAC  -0.215
24. ATACCCCG  -0.214
25. CCGACAAC  -0.209
26. CCGTCAGA  -0.207
27. GGCCTGAA  -0.204
28. CAGGCGCG  -0.203
29. CCCGAGGG  -0.202
30. GAGGTCAC  -0.196
31. CGAGAGCG  -0.196
32. AACGCTTG  -0.194
33. GCCCGGAC  -0.191
34. GCCTGGGA  -0.191
35. CCTGTACC  -0.188
36. GATCAGAA  -0.186
37. GCGTGGCA  -0.179
38. CAGCAACC  -0.165
39. CCGCTTGA  -0.162
40. CGGGATAC  -0.159
41. GTGGTAGA  -0.158
42. AACAGGCG  -0.15
43. GCACTTCC  -0.149
44. ATGTACGC  -0.147
45. GTCGCGCA  -0.146
46. AGTGGCTG  -0.145
47. CGAGGACA  -0.143
48. CCTCCGAA  -0.142
49. GCACGGTA  -0.136
50. CACGACCC  -0.135
51. AACGCCGG  -0.132
52. ACACGCCT  -0.129
53. GAACAGGC  -0.125
54. CCGCCGGC  -0.123
55. ATGCCCAA  -0.111
56. CTGACTCC  -0.107
57. AATGACCG  -0.0995
58. GTCCCCAA  -0.0974
59. GCCCGCAC  -0.0921
60. ACTCTACG  -0.0914
61. AAACCCTC  -0.0901
62. AGCTGCTG  -0.0869
63. ACCCGACC  -0.0863
64. GCTGATAC  -0.0861
65. CATCGAAC  -0.0795
66. ACTGATCG  -0.0737
67. ACGTTGAC  -0.0727
68. AAAGGCGG  -0.0684
69. AATGGCAC  -0.0634
70. ACTCGCTA  -0.0623
71. ATGAACCG  -0.0614
72. AGTCGAAT  -0.0612
73. GGAAAGGA  -0.0611
74. AAGGGCAA  -0.0518
75. ACGCGATC  -0.0515
76. ACGAAAGC  -0.05
77. AATGAGGC  -0.0498
78. CGTCACAG  -0.0478
79. GAAGGACA  -0.0471
80. CATGGACA  -0.0412
81. CTCGCGCA  -0.0366
82. ACGGCAGA  -0.0336
83. ACCTTAAG  -0.033
84. ATCTGGTG  -0.0329
85. GCGTAGAA  -0.0322
86. CTCTTAAC  -0.0309
87. ATGCACTA  -0.0286
88. AGAAGCTA  -0.0254
89. CAGCTATG  -0.0252
90. ATAAGCGA  -0.0227
91. ATTCCCAC  -0.022
92. TAGGGCAA  -0.022
93. ACCTGATC  -0.0169
94. GCAATCAC  -0.0161
95. CCGCTCCG  -0.0118
96. ACAGAACC  0.00465
97. CTGATTGA  0.00921
98. GATCGACC  0.0146
99. GTGAAGTA  0.0148
100. AACCTAGT  0.0151
101. CTTCTCGA  0.0158
102. GTTTACGA  0.0161
103. ACTTGTCG  0.0162
104. ACAGCGTA  0.0178
105. AAGTGTGT  0.0227
106. ACAGTAGT  0.0255
107. CTTTCCCC  0.0309
108. GACCTAAC  0.0362
109. AGCACTAT  0.0398
110. AATAGGTC  0.0419
111. GAGAAGTA  0.0419
112. CGTCTATA  0.0435
113. TAGGCAAA  0.0442
114. ACTCGGAG  0.0528
115. GCAGGTAA  0.0549
116. CGATCCAA  0.0578
117. AATGAGAA  0.0586
118. CTAAACGA  0.0611
119. AACGATGA  0.0671
120. CTACCCAA  0.0675
121. ACTGTGTG  0.073
122. AACTTAGT  0.0819
123. AATACCTG  0.0872
124. CAGTCATA  0.0931
125. AGTCTGAT  0.0945
126. ACGAGAAC  0.0954
127. ACCGATTA  0.0957
128. CTACAAAG  0.0965
129. ATCGAATG  0.0968
130. AATGCGCG  0.105
131. AGTTTCTC  0.107
132. AATCGTCG  0.111
133. AGTGTGAT  0.113
134. ACGATATG  0.119
135. CTATGTAA  0.125
136. ATCATGTG  0.126
137. ATACGAAC  0.128
138. CCAATTGA  0.129
139. AACCGTTC  0.132
140. ATTTCGTC  0.135
141. CATGTCCA  0.135
142. CATTCAGC  0.135
143. TGTATAAA  0.136
144. CCCCGAAA  0.141
145. ATAATGCG  0.144
146. ACAGAAGC  0.145
147. CAATCAAC  0.151
148. AGTTCCTA  0.152
149. AGTGACAG  0.153
150. ATTGCACA  0.156
151. ACGCACAC  0.157
152. AAACCACT  0.159
153. ATAATGTA  0.16
154. CATATAGA  0.162
155. CAGTGTTA  0.162
156. ATGTTGTA  0.164
157. ATCTGCTA  0.164
158. ACCCATAT  0.177
159. AATAGCGA  0.186
160. AAACTACA  0.195
161. ATACCCAA  0.197
162. TAATCACA  0.207
163. ACTGAAAC  0.208
164. GTTATTCA  0.21
165. ATTTTTAC  0.213
166. ACATTTAA  0.23
167. AAATGTAA  0.234
168. TATAACAA  0.235
169. TACTATAA  0.237
170. AGCGATAT  0.246
171. ACACAAAA  0.266
172. TATCAAGA  0.269
